Results reported in the RNAGym collection of RNA variant scans (doi:10.7554/elife.90254).
Read counts are not given, so values of variants with three or more changes are uncertain.

B1: LINE1-mini (parent)
chain: GGCAGAGCUCAACACAGCGUGGCAAAGUGGCUGUGGCUAGACUGCC

Variants of: B1
Test: self-cleavage, relative activity (ratio to wild type); higher = more cleavage; in vitro, sequencing; the parent is a self-cleaving ribozyme
Work on GGCAGAUCUCAACACAGCGUGUAAAAGUGGCUGUUGCUAGACUGCC [G7U G22U C23A G35U] yielded a self-cleavage of 0.06. GGCAGAUCGCAUCACAGCGUGGCUAAGUAGCUGUGGCUAGACUGCC [G7U U9G A12U A24U G29A] gave a self-cleavage of 0.04. With GGCAGAUCACAACAAAGCGUGGCAAAGUGGCCGUGGCUAGACUGCC [G7U U9A C15A U32C] the self-cleavage was 0.69. GGCAGAUCUCAACACAGCGUGGCAAAGUGGGUGUGGCUAGACUGAC [G7U C31G C45A] showed a self-cleavage of 0.01. With GGCAGAUCUCAACACAGCGUAGCUAAGUGGCUGUGCCUAGACUGCC [G7U G21A A24U G36C] the self-cleavage was 0.12. In the case of GGCAGAUCUCAACACAGCGUCGCAAUGUGGCUGUGGCGGGACUGCC [G7U G21C A26U U38G A39G], the self-cleavage is reported as 0. GGCAGAUCUCAACACAGCGGGGCUAAGUAGCUGUGGCUAGACUGCC [G7U U20G A24U G29A] showed a self-cleavage of 0.04. In the case of GGCAGAUCUCAACACAGCAUGGCAAAGUAGCUGUGGCUAGACUGCC [G7U G19A G29A], the self-cleavage is reported as 0.05. GGCAGAUCGCAACACAGCGUGGCAAAUUGGCCGUGGCUAGAAUGCC [G7U U9G G27U U32C C42A] showed a self-cleavage of 0.02. Work on GGCAGAUCCCAACAUAGCGUGGCAAAGUUGCUGUGGCUAGACUGCC [G7U U9C C15U G29U] yielded a self-cleavage of 0.06. Work on GGCAGAUCUCAACACAGCGUGGCAAAAUGGCUCUGGCUAUACUGCC [G7U G27A G33C G40U] yielded a self-cleavage of 0.01. In the case of GGCAGAUCACCACACAGCGUGGCAAAGUGGCUGUGGCUAGACUGCG [G7U U9A A11C C46G], the self-cleavage is reported as 0.04. With GGCAGAUCUCAACACAGCGUGGCAAAGUCGCUGUGGCUAGACUGCA [G7U G29C C46A] the self-cleavage was 0.12. For GGCAGAUCUCAACACAACGUGGCAAAGUGGCUUUGGCUAGACUGCC [G7U G17A G33U], the self-cleavage was 0.68. GGCAGAUCGCAAUACAGCGUGGCAAAGUGGCUGUGGCUAGACUGCC [G7U U9G C13U] gave a self-cleavage of 0.2. GGCAGAUCUCAACACAGCGUGGCAAAGUGGCUGUGGCUAGAAUGCU [G7U C42A C46U] gave a self-cleavage of 0.02. With GGCAGAUCUCAACACAGCGUUGCAAAGUGGCUGUGGCUAGAGUGCC [G7U G21U C42G] the self-cleavage was 0.03. In the case of GGCAGAUCUCAACACAUCCUGCCAAAGUGGCUCUCACUAGACUCCC [G7U G17U G19C G22C G33C G35C G36A G44C], the self-cleavage is reported as 0.04. GGCAGAUCUCAACACAGCGUGGCAAAGUGACUGUGACUAGACUGCC [G7U G30A G36A] showed a self-cleavage of 0.06. Work on GGCAGAUCUCAACACAGCGUGGCAAAGUGGCUAUGGCCAGACUGCC [G7U G33A U38C] yielded a self-cleavage of 0.09. Variant GGCAGAUCUCAACACAGCGUGGCAAACUGGGUGUGGCUAGACUGCC [G7U G27C C31G] has a self-cleavage of 0.03. In the case of GGCAGAUCGCAACACAGCGUCGCAAAGUGGCUGUGGCUAGACUGGC [G7U U9G G21C C45G], the self-cleavage is reported as 0.13. Work on GGCAGAUCUCAACACAUCGUGGCAAAGUGGCUGUGGCUAGACUACC [G7U G17U G44A] yielded a self-cleavage of 0.1. In the case of GGCAGAUCGCAACACAGCGUGGCAUAGUGGCUGUGGCUACACUGCC [G7U U9G A25U G40C], the self-cleavage is reported as 0.02. With GGCAGAUCUCAACACAGCGGCGGAAAGUGGCUAUGGCUAGACUGCA [G7U U20G G21C C23G G33A C46A] the self-cleavage was 0.01. GGCAGAUCUCAACACAGCGUGGCAAAGCGGCUGUGGGUGGACUGCC [G7U U28C C37G A39G] gave a self-cleavage of 0.01. Variant GGCAGAUCUCAACACAGCGUGGCAAAGUGGCGGCGGCUAGACUGCC [G7U U32G U34C] has a self-cleavage of 0.33. Variant GGCAGAUCUCAACACAGCGAGGCAAAGUGGCUGCGGCUAGACUGCC [G7U U20A U34C] has a self-cleavage of 0.15. Variant GGCAGAUCUCAACACAGCGUUGCAAAGUGGGUGUGGCCAGACUGCC [G7U G21U C31G U38C] has a self-cleavage of 0.15. With GGCAGAUCUCAACACACCGUGGCAAAGUGGCUGUGUCGAGACUGCA [G7U G17C G36U U38G C46A] the self-cleavage was 0.01. GGCAGAUCUCAACACACCGUGGCAAAGUGGCUGUAGAUAGACUCCC [G7U G17C G35A C37A G44C] showed a self-cleavage of 0.02. With GGCAGAUCUCAACACAGCCUGGCAAAGUGGCUGUGGCUAUACUGCC [G7U G19C G40U] the self-cleavage was 0.18. For GGCAGAUCGCAACACAGCGUGGCAUAGUGGCUGUGGCUAGACUGCC [G7U U9G A25U], the self-cleavage was 0.1. With GGCAGAUCUCAACACAGCGUGGCAAAGUUGCUGAGGCUAGACUGCC [G7U G29U U34A] the self-cleavage was 0.35. With GGCAGAUCUCAACACAGCUUGGCAAAGUGACUGUAGCUAGACUGCC [G7U G19U G30A G35A] the self-cleavage was 0.11. Work on GGCAGAUCUCAACACAGCGUGGCAAAGGGGCCGUGGCUAGACUGCC [G7U U28G U32C] yielded a self-cleavage of 0.06. GGCAGAUCUCAACACAGCGUGGCAAAGUGCCUGUGCCUAGACUGCC [G7U G30C G36C] showed a self-cleavage of 0.03. GGCAGAUCUCAACACAGCCUGGCAAAGUGGCUGUGGAUAUACUGCC [G7U G19C C37A G40U] gave a self-cleavage of 0.01. With GGCAGAUCGCAACACAGCGUAGCAAAGAGGCUGUGGCUAGACUGCC [G7U U9G G21A U28A] the self-cleavage was 0.01. Work on GGCAGAUCUCAACACAGCGUGACAAAGUGGCUGUGGCUAGACUUCC [G7U G22A G44U] yielded a self-cleavage of 0.24. For GGCAGAUCUCAACACAGCGUGGCAAAGAGGCUGUGCCUAGAGUGCC [G7U U28A G36C C42G], the self-cleavage was 0.03. With GGCAGAUCUCAACACAGCGUGUCAAAGUGGCUGUGGCGAGACUGCC [G7U G22U U38G] the self-cleavage was 0.01. For GGCAGAUCUCAACACAGCGUGGCAAAGUGGCUGUGGCUAGACUCCA [G7U G44C C46A], the self-cleavage was 0.21. Work on GGCAGAUCUCAACACAGCGAGGCAAAUUUGCUGUGGCUAAACUGUC [G7U U20A G27U G29U G40A C45U] yielded a self-cleavage of 0.11. GGCAGAUCUCAACACAGCGUGACAAAGUGGCUCUGGCUAGACUGCC [G7U G22A G33C] showed a self-cleavage of 0.03. For GGCAGAUCUCAACACAGCGUGGCAAAGGGUCUGUGGCUUGACUGCC [G7U U28G G30U A39U], the self-cleavage was 0.29. Work on GGCAGAUCUCAACACAGCUUGGCAAGGUUGAUGUGACUAGACUGCC [G7U G19U A26G G29U C31A G36A] yielded a self-cleavage of 0.26. GGCAGAUCUCAACACAGCGUGGAAAAAUGGCUGUGGAUAGACUGCC [G7U C23A G27A C37A] showed a self-cleavage of 0.01. Work on GGCAGAUCUCAACACAGCGUGUCAACUUGUCUGUGGCUAGAUUGUC [G7U G22U A26C G27U G30U C42U C45U] yielded a self-cleavage of 0.05. Variant GGCAGAUCUCAACACAGCGUGGCAAAGUGGCUGUGUCUAGACGUCC [G7U G36U U43G G44U] has a self-cleavage of 0.02. For GGCAGAUCUCAACACAGCAUGGAAAAGUGGCUGUGGCUAGACUGCC [G7U G19A C23A], the self-cleavage was 0.05. For GGCAGAUCGCAACACAGCAUGGCAAAGUGGCUGUGGCUAGGCUGCC [G7U U9G G19A A41G], the self-cleavage was 0.01. GGCAGAUCUCAACACAGCGUGGCAAAGUGUCUAAGGCUAGACUGCC [G7U G30U G33A U34A] gave a self-cleavage of 0.43. Work on GGCAGAUCUCAACACAGCGUGUCAAUGUGGCUGUGGCUAGACUGCC [G7U G22U A26U] yielded a self-cleavage of 0.2. Work on GGCAGAUCUCAACACAGCGUGGCAAAGUGGCUGAGGCUAGACAGCC [G7U U34A U43A] yielded a self-cleavage of 0.02. With GGCAGAUCUCAACACAGCGUGGCAAAGUGGCGGUGGCUAGACUGGC [G7U U32G C45G] the self-cleavage was 0.13.
